PubChem BioAssay
Inconclusive results, whose numbers are uncertain, are shown with a selection of clear calls. Active and inactive are the calls of the source.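 Rule for the calls, unless noted: active = thallium flux slope more than 3 SD above or below the plate's solvent-only control mean, mostly below; inconclusive = the two repeat wells disagreed; inactive = no significant shift from solvent-only controls.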

How the values were obtained:
[1] = target: Solute carrier family 12 member 5 (Homo sapiens) (UniProt Q9H2X9); assay: retest of KCC2 transport modulation, ouabain-free – cell-based, HEK293 KCC2, thallium flux, FluoZin2, secondary assay 2, confirmation (AID 1715); conditions: HEK293-KCC2, thallium flux FluoZin2 fluorescence; at 10 µM; actives lie on both sides; F/F0 rise rate, 10–20 s post-thallium;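 note: raw slope with 0.1% DMSO as baseline and bumetanide as block control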
[2] = native HEK Tl+ uptake effects, second counter-screen – HEK cells, counterscreen 2, counter-screen for KCC2 modulator project, confirmation (AID 1718;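 active = thallium flux slope above the same plate's solvent-control mean plus 3 SD in both duplicate wells; inconclusive = duplicate wells that disagreed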;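 note: run without ouabain in cells lacking the KCC2 cotransporter; slope of fluorescence scaled to its starting value between 10 and 20 s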); conditions: HEK293 parental, thallium flux FluoZin-2 fluorescence slope; at 10 µM
How it was run: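 Read-out: thallium influx rate; assay system: parental HEK cells; replication: slope calculated separately for each replicate well; signal: FluoZin2-AM fluorescence (0.5 µM), ex 480 nm, em 540 nm, kinetic 1 Hz; benchmarks: bumetanide 2 mM; schedule: overnight cell culture at 37 °C, 48 min dye loading, compound before thallium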

[3] = target: Solute carrier family 12 member 5 (Homo sapiens) (UniProt Q9H2X9); assay: modulation of KCC2 thallium flux in HEK cells – cell-based, ouabain, retest, confirmation (AID 1717;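 active = thallium flux slope beyond 3 SD from same-plate DMSO control mean in most replicates, usually higher, sometimes lower; inconclusive = repeat tests gave conflicting results; inactive = no significant difference from controls in most replicates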;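 note: slope of initial-normalized fluorescence between seconds 10 and 20 after thallium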); conditions: HEK293-KCC2, thallium flux FluoZin2 fluorescence, at 10 µM, bidirectional: low = inhibitor, high = activator
[4] = compound effects on native HEK Tl+ uptake – HEK cells, counterscreen 1, counter-screen for KCC2 modulator project, confirmation (AID 1716;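 active = thallium flux rate significantly above the same plate's solvent-only control wells, beyond their mean plus 3 SD; inconclusive = the two replicate wells gave conflicting results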); conditions: HEK293 parental cells, thallium flux FluoZin2, ouabain; at 10 µM; baseline-ratio fluorescence slope, 10–20 s after thallium

UniProt Q9H2X9, sequence (Q9H2X9 whole entry, looked up): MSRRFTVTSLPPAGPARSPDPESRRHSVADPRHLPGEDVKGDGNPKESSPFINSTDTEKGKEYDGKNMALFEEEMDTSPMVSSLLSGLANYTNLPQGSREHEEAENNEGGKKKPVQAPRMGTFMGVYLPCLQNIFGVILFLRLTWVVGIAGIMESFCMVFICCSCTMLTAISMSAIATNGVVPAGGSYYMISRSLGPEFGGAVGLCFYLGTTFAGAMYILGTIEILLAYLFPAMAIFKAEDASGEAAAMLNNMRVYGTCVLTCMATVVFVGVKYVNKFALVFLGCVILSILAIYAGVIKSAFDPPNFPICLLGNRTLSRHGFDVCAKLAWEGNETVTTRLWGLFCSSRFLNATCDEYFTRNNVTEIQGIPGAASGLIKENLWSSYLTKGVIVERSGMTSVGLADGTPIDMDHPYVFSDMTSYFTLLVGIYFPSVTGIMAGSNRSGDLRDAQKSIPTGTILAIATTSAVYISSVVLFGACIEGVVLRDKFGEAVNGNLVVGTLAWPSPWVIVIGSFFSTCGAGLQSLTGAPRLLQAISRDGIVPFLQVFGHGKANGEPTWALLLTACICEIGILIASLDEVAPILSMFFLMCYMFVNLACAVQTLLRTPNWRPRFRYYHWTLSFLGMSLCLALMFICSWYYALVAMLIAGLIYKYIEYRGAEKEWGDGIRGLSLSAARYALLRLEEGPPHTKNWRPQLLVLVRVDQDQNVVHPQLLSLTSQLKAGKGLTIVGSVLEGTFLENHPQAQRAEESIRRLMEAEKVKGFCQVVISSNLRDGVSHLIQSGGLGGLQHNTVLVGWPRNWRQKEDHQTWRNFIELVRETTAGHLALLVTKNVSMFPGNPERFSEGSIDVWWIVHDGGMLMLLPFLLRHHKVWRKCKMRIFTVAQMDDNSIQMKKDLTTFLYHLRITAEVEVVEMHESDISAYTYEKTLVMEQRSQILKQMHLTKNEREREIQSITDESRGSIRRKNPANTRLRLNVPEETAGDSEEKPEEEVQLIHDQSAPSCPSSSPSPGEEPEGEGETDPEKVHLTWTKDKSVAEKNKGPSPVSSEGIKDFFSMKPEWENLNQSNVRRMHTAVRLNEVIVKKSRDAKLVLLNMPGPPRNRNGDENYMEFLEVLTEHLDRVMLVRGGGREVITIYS

| SMILES | normalized thallium flux [1] | thallium flux slope [2] | raw Tl+ flux slope (below DMSO = inhibition, above = activation) [3] | thallium flux rate (normalised fluorescence) [4] |
| --- | --- | --- | --- | --- |
| COc1cc(/C=C2\SC(=S)N(NS(=O)(=O)c3ccc(C)cc3)C2=O)ccc1O | active: 0.0184 | inconclusive: 0.00762 |  |  |
| O=C(Nc1ccn(Cc2ccccc2)n1)c1cccc(F)c1 | inconclusive: 0.0257 | inactive: 0.00931 |  |  |
| O=[N+]([O-])c1ccc(Sc2cccc[n+]2[O-])c2nonc12 | inactive: 0.0295 | inconclusive: 0.011 | inactive: 0.0234 |  |
| Cc1ccc(/C=N/NC(=S)NC2CCCCC2)o1 | inactive: 0.0327 | inconclusive: 0.0111 |  |  |
| COc1cccc2sc(NNC(=O)C3COc4ccccc4O3)nc12 (stereo unspecified) | inconclusive: 0.0353 | active: 0.0205 |  |  |
| CC(C)Cc1csc(NC(=O)c2ccc(Cl)cc2)c1C(=O)O | inactive: 0.0287 | inconclusive: 0.0103 | inconclusive: 0.0302 |  |
| Cn1c(=O)c2c(nc(CN3CCN(C(c4ccccc4)c4ccccc4)CC3)n2CC(N)=O)n(C)c1=O | inactive: 0.0297 | inconclusive: 0.0106 |  |  |
| CC(=O)c1cccc(NC(=S)NC(=O)Cc2ccccc2)c1 | inconclusive: 0.0262 | inconclusive: 0.0115 | inactive: 0.0202 |  |
| COc1cccc(NC(=S)NC(=O)c2c(Cl)c(C)nn2C)c1 | inconclusive: 0.0408 | active: 0.0309 |  |  |
| Cc1c(C(=O)NCCSCc2ccc(F)cc2)cnn1-c1ccc(Cl)cc1 | inconclusive: 0.0261 | inactive: 0.00983 | active: 0.0169 |  |
| CC(C1CC2CCC1C2)n1c(-c2ccco2)n[nH]c1=S (stereo unspecified) | inconclusive: 0.0393 | active: 0.0161 |  |  |
| CCCCCC(=O)NC(=S)Nc1ccc(Cl)cn1 | inactive: 0.0348 | active: 0.0184 | inconclusive: 0.0237 |  |
| CC(C)(CNC(=S)NCCc1ccccc1)CNC(=S)NCCc1ccccc1 | inconclusive: 0.0258 | inactive: 0.00936 | active: 0.0132 |  |
| CCCCCCCN1N=C(C)C(C(=O)c2ccccc2)C1=O (stereo unspecified) | inconclusive: 0.0398 | active: 0.0174 |  |  |
| COc1ccc(OCCCc2c(C)n[nH]c2C)cc1 | inactive: 0.0299 | inconclusive: 0.0105 | inactive: 0.0332 |  |
| O=C(NCc1ccccc1)c1nc2c(nnn2Cc2cccc(Cl)c2)c(=O)[nH]1 | active: 0.0236 | inconclusive: 0.00946 |  |  |
| CCCCOc1cccc(C(=O)NC(=S)Nc2cccc(C(F)(F)F)c2)c1 | inconclusive: 0.037 | active: 0.0156 |  |  |
| CCOc1cc(/C=C(/C#N)c2ccc(F)cc2)ccc1OCc1ccc(C(=O)O)o1 | active: 0.0237 | inconclusive: 0.00788 |  |  |
| CC1CCCN(C(=O)c2ccc3c(=O)n(C4CCCC4)c(=S)[nH]c3c2)C1 (stereo unspecified) | inconclusive: 0.0301 | inactive: 0.011 | inconclusive: 0.0273 |  |
| COc1ccc2c(c1)O[C@@H](c1cccc(C(F)(F)F)c1)[C@H](OC(=O)NCCc1ccc(OC)c(OC)c1)C2=O | inconclusive: 0.0343 | active: 0.0217 |  |  |
| CC[C@H](CO)Nc1nc(Nc2cccc(Cl)c2)c2ncn(C(C)C)c2n1 | inconclusive: 0.0265 | inactive: 0.0105 |  |  |
| CC1CCCCN1S(=O)(=O)c1ccc(C(=O)Nc2nnc(-c3cccs3)o2)cc1 (stereo unspecified) |  |  |  | inconclusive: 0.0089 |
| N/C(Cc1cccs1)=N\OC(=O)COc1ccccc1Cl |  |  |  | inconclusive: 0.00552 |
| Cc1ccc2c(Cl)cc(Cl)c(OCC(=O)NC(C)(C)C)c2n1 | inactive: 0.0304 | inconclusive: 0.0109 |  |  |
| CCCCOc1ccc(-c2c(C#N)c(N)nc(SCC(N)=O)c2C#N)cc1 | inactive: 0.032 | inconclusive: 0.0112 |  |  |
